Laboratory results taken from PubChem BioAssay AID938 (National Center for Advancing Translational Sciences (NCATS), 2007).
Screen size: about 73,000 compounds; about 1,800 (2.5%) were called active. The inconclusive results got no clear call from the source; some entries with a clear call stand among them for comparison. Calls come from the whole dose curve; as a rule, active = well fitted activation curve with a large enough effect; inconclusive = small, poorly fitted or top-dose-only effect; inactive = no such curve, though single readings can be large or run the other way. No potency is given beside an inconclusive call; the fits are too rough.

Experiment: qHTS Assay for Agonists of the Thyroid Stimulating Hormone Receptor: Activators of Intracellular cAMP Concentrations in Parental HEK 293; note: nearly all actives have a fitted effect of over 55% in size; for activation: % of control where 0% means no effect
Conditions: parental HEK293 CNG cAMP sensor, membrane potential fluorescence; activation: at 57.1 µM (top of the series) unless noted
Procedure, shortened: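 Counterscreen for endogenous-receptor signalling: CNG-channel HEK 293 cells report cAMP rise by membrane depolarization. After 60 min dye equilibration with 100 uM RO 20-1724, compounds incubated 30 min before bottom-read fluorescence at 590 nm.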
Potency is the fitted concentration of half-maximal effect; tags give direction and shape of the fitted curve.

Row | Structure (SMILES) | activation | Potency
1 | COc1cc(Cl)c(S(=O)(=O)NCc2cccnc2)cc1Cl | inactive: -1.91% | 
2 | Cc1cc(C)c2c(n1)nn1c(N3CCN(c4ccccc4C)CC3)cc(C)nc21 |  | inconclusive [activator, single point]
3 | Clc1ccc(-n2ncc3c(NCC4CCCO4)ncnc32)cc1 (stereo not given) |  | inconclusive [activator, single point]
4 | CC1=C(C(=O)OC2CCCCC2)C(c2ccc(C)o2)C2=C(CCCC2=O)N1 (stereo not given) |  | inconclusive [activator, partial curve]
5 | CN1CC[C@@]2(CCCN(S(=O)(=O)c3ccccc3)C2)C1 |  | inconclusive [activator, partial curve]
6 | CCOC(=O)CC(=O)Nc1ccc(C(=O)OCC)cc1 |  | inconclusive [activator, single point]
7 | O=C(Cn1cccc1C(=O)c1ccccc1)NCc1cccnc1 |  | inconclusive [activator, single point]
8 | O=C(c1ccc(Br)o1)N1CCN(c2ccccc2F)CC1 |  | inconclusive [activator, single point]
9 | CC1(C)Cc2ccccc2-c2nnc(-c3ccccc3)n21 |  | inconclusive [activator, full curve]
10 | COc1cccc(C2N(c3ccc(Cl)c(Cl)c3)C(=O)C3CCCN32)c1OC (stereo not given) |  | inconclusive [activator, single point]
11 | O=C(c1cnccn1)N1CCC2(CC1)CCN(c1ncccn1)CC2 | inactive: -3.44% | 
12 | O=C(Cn1cnc2c(nnn2Cc2ccc(Cl)cc2)c1=O)OCc1ccccc1 |  | inconclusive [activator, partial curve]
13 | Cc1cc(C)c2c(=O)n(CC(=O)NCCCN3CCOCC3)sc2n1 |  | inconclusive [activator, single point]
14 | CCCCNC(=O)c1ccccc1C(=O)NCCCC |  | inconclusive [activator, single point]
15 | CCOC(=O)c1c(C2COc3ccccc3O2)csc1N (stereo not given) | inactive: -3.1% | 
16 | O=C1CC(c2cccc(Cl)c2)Cc2nc(N3CCN(c4ccccc4)CC3)ncc21 (stereo not given) |  | inconclusive [activator, full curve, poor fit]
17 | CCN1CCCC1CNC(=O)c1c(O)c2c([nH]c1=O)CCCC2 (stereo not given) |  | inconclusive [activator, single point]
18 | CCOC(=O)CSC1=C(C#N)C(c2ccc(F)cc2)C(C(C)=O)=C(C)N1 (stereo not given) | inactive: 3.06% | 
19 | COc1cc(C(=O)O)ccc1OC(C)=O |  | inconclusive [activator, single point]
20 | O=C(CN(Cc1cccs1)C(=O)CNS(=O)(=O)c1ccc(F)cc1)NCc1ccco1 |  | inconclusive [activator, single point]
21 | N#Cc1cc2c(=O)n3ccccc3nc2n(Cc2cccnc2)c1=O | inactive: 0.134% | 
22 | CC1Cc2nc(SCC(=O)OCc3ccccc3)n(C)c(=O)c2S1 (stereo not given) |  | inconclusive [activator, full curve, poor fit]
23 | COc1ccc(C2CC(=O)C(C=NCCCN3CCOCC3)=C(O)C2)cc1 (stereo not given) |  | inconclusive [activator, single point]

Row | Structure (SMILES) | activation | Potency
24 | CCC(C)(C)n1nnnc1C(c1ccc(OC)c(OC)c1)N1CCN(c2ccccc2)CC1 (stereo not given) |  | inconclusive [activator, full curve, poor fit]
25 | O=C(O)CCC/C=C\C[C@H]1[C@@H](/C=C\[C@@H](O)C2Cc3ccccc3C2)[C@H](F)C[C@H]1O | inactive: -6.35% | 
26 | COc1ccc(C)cc1NC(=O)CN1CCN(S(=O)(=O)c2ccc(C(C)C)cc2)CC1 |  | inconclusive [activator, partial curve]
27 | CCCCN(C)C(=O)c1oc2ccc(S(=O)(=O)N3CCCCCC3)cc2c1C |  | inconclusive [activator, partial curve]
28 | O=C(OCC(=O)N(C1CCCCC1)C1CCCCC1)c1ccncc1 |  | inconclusive [activator, partial curve]
29 | FC(F)(F)c1ccc(N2CCOCC2)c(Nc2nc3ccccc3n3cnnc23)c1 |  | inconclusive [activator, partial curve]
30 | CCn1cc(C(=O)NCc2cccnc2)c2cc(OC)c(OC)cc2c1=O | inactive: 2.79% | 
31 | Clc1ccc(Cl)c(Cl)c1Cl | inactive: -9.27% | 
32 | CCCC(C)c1nnc(NC(=O)C2CCCO2)s1 (stereo not given) |  | inconclusive [activator, single point]
33 | O=C(Cn1cnc2ccccc2c1=O)c1ccc2c(c1)OCCO2 | inactive: 15.2% | 
34 | COc1ccc(C(c2nnnn2C2CCCCC2)N2CCN(c3ccccc3)CC2)cc1 (stereo not given) |  | inconclusive [activator, full curve]
35 | CCCn1c(SCC(=O)Nc2nc3c(s2)CCCC3)nc2c1c(=O)n(C)c(=O)n2C |  | active: 15.8 µM
36 | CCOC(=O)c1nnn(-c2nonc2N)c1CN(C)C1CCCCC1 |  | inconclusive [activator, single point]
37 | CCC/C=C(\CCC)C(NP(=O)(c1ccccc1)c1ccccc1)c1ccc(C(F)(F)F)cc1 (stereo not given) |  | active: 3.98 µM
38 | CCC(=O)N1CCCc2cc(S(=O)(=O)N3CCN(c4ccccc4F)CC3)ccc21 |  | active: 25.1 µM
39 | COc1cccc(-c2cncnc2NCc2cccc(C)c2)c1 |  | inconclusive [activator, partial curve]
40 | c1ccc(OCCn2c(-c3ccco3)nc3ccccc32)cc1 |  | active: 25.1 µM
41 | CC(C)Sc1nc2c(c(=O)n1-c1ccc(F)cc1)SCC2 |  | inconclusive [activator, single point]
42 | Cc1nn(-c2ccccc2)c2sc(C(=O)N3CCOCC3)cc12 |  | inconclusive [activator, single point]
43 | Cc1ccc(-c2noc(CSc3nnnn3-c3ccccc3)n2)cc1 |  | inconclusive [activator, partial curve]
44 | CCOC(=O)C(C)C(C)=O (stereo not given) | inactive: 22.3% | 
45 | Cc1ccnc2ccc(-c3nc4ccccc4o3)cc12 |  | inconclusive [activator, single point]
